# The other results are listed elsewhere or left out.
# System: HepG2
# Experiment: cytotoxicity call (relative viability < 0.9)
# Settings: 10 µM
row,SMILES,cytotoxicity call
1,C[C@@H]1CN([C@H](C)CO)S(=O)(=O)c2ccc(C#CC(C)(C)O)cc2O[C@H]1CN(C)C(=O)C1CCCCC1,inactive
2,Cc1noc(C)c1S(=O)(=O)Nc1ccc2c(c1)CC(=O)N([C@H](C)CO)C[C@H](C)[C@@H](CN(C)C(=O)Nc1ccc3c(c1)OCO3)O2,inactive
3,Cl.NCC(=O)CCC(=O)O,inactive
4,C[C@@H]1CCCCO[C@@H](CN(C)C(=O)Cc2ccccc2)[C@H](C)CN([C@H](C)CO)C(=O)c2cc(NC(=O)c3ccccc3)ccc2O1,inactive
5,Cc1ccc(S(=O)(=O)Nc2ccc3c(c2)C(=O)N([C@H](C)CO)C[C@H](C)[C@@H](CN(C)C(=O)NC(C)C)O3)cc1,inactive
6,C[C@@H]1CCCCO[C@H](CN(C)Cc2ccc(C(F)(F)F)cc2)[C@H](C)CN([C@@H](C)CO)C(=O)c2cc(NC(=O)CCCN(C)C)ccc2O1,active
7,C[C@@H]1CN([C@H](C)CO)C(=O)c2cc(NC(=O)Nc3ccccc3)ccc2O[C@@H](C)CCCCO[C@H]1CN(C)C(=O)c1ccccc1,inactive
8,COCC(=O)N1C[C@]2(C1)CN([C@@H](CO)c1[nH]c3cc(ccc3c12)OC)S(=O)(=O)C,inactive
9,OC[C@H]1O[C@@H](Oc2cccc(O)c2CCCc2ccc(O)cc2)[C@@H](O)[C@@H](O)[C@@H]1O,inactive
10,O=C(/C=C/c1ccc2c(c1)O[C@@H](C(=O)O)[C@@H](c1ccc(O)c(O)c1)O2)O[C@H](Cc1ccc(O)c(O)c1)C(=O)O,inactive
11,C[C@@H]1CN([C@@H](C)CO)C(=O)c2cc(-c3cncnc3)cnc2O[C@@H]1CN(C)C(=O)CN1CCOCC1,inactive
